According to the antibiotic and cytotoxicity screens of Wong et al. (2023):
Some of the results follow.

Columns and labels:
HSkMC = human skeletal muscle cells; experiment: cytotoxicity call (relative viability < 0.9); conditions: 10 µM
S. aureus RN4220 = experiment: growth inhibition call (relative growth <= 0.2); conditions: 50 µM

SMILES | cytotoxicity call (HSkMC) | growth inhibition call (S. aureus RN4220)
O=c1cc(Cl)[nH]c(=O)[nH]1 | inactive | inactive
COCC(=O)N1C[C@H](C)[C@@H](OC)CN(C)C(=O)c2cc(NC(=O)c3cc(C)on3)ccc2OC[C@H]1C | inactive | inactive
C[C@@H]1CCCCO[C@H](CN(C)Cc2ccccc2)[C@@H](C)CN([C@H](C)CO)C(=O)c2cc(NS(=O)(=O)c3ccc(F)cc3)ccc2O1 | inactive | inactive
Nc1nc(=O)c2ncn(CCC(CO)CO)c2[nH]1 | inactive | inactive
CO[C@@H]1CN(C)C(=O)c2ccc(NC(=O)Nc3ccccc3F)cc2OC[C@@H](C)N(Cc2ccccc2F)C[C@H]1C | inactive | inactive
CCCCN1CC=C[C@@]23O[C@@H]4C=CCCOC(=O)[C@@H]4[C@H]2C(=O)N([C@@H](C)CO)[C@@H]3C1=O | inactive | inactive
CCCNC(=O)c1cc2c(c(-c3cccc(-c4ccc(F)cc4)c3)n1)[C@@H](CCO)N([S@](=O)C(C)(C)C)C2 | inactive | inactive
C=CC[C@H](CC(=O)N(CCO)Cc1ccccc1)C(=O)N[C@@H](COC(=O)[C@H](CC=C)CC(=O)OC(C)(C)C)Cc1c[nH]c2ccccc12 | inactive | inactive
COc1ccc(S(=O)(=O)N(C)C[C@H]2Oc3ccc(NC(=O)Cc4ccccc4)cc3C(=O)N([C@@H](C)CO)C[C@@H]2C)cc1 | inactive | inactive
CN(C)C(=O)c1ccc(-c2cccc(-c3nc(C(=O)NC4CCC4)cc4c3[C@@H](CCO)N([S@](=O)C(C)(C)C)C4)c2)cc1 | inactive | inactive
C[C@H]1CCCCO[C@@H](CN(C)Cc2ccc3c(c2)OCO3)[C@@H](C)CN([C@@H](C)CO)C(=O)c2cc(NS(=O)(=O)c3ccc(Cl)cc3)ccc2O1 | inactive | inactive
COc1ccc(S(=O)(=O)N(C)C[C@@H]2Oc3ccc(NC(=O)Nc4cccc5ccccc45)cc3C(=O)N([C@@H](C)CO)C[C@H]2C)cc1 | active | inactive
Cn1c(=O)cc(N2CCC[C@@H](N)C2)n(Cc2ccccc2C#N)c1=O | inactive | inactive
CC=Cc1ccc2n(c1=O)C[C@@H]1[C@@H](CO)[C@H](C(=O)NCCc3cn(C)cn3)N(C(=O)CC)[C@H]21 | inactive | inactive
NCc1ccc(-c2ccc(Br)cc2)cc1 | inactive | inactive
C[C@@H]1CN([C@@H](C)CO)C(=O)c2cc(C#CC3(O)CCCC3)cnc2O[C@H]1CN(C)C(=O)CN(C)C | inactive | inactive
Cc1noc(C)c1S(=O)(=O)N(C)C[C@H]1Oc2ccc(NC(=O)CCC(F)(F)F)cc2CC(=O)N([C@@H](C)CO)C[C@@H]1C | inactive | inactive
C[C@@H]1CCCCO[C@@H](CN(C)Cc2ccc(C(F)(F)F)cc2)[C@@H](C)CN([C@@H](C)CO)C(=O)c2cc(NC(=O)Nc3ccc(F)cc3)ccc2O1 | inactive | inactive
COc1cc2c(cc1OC)CN(C(=O)[C@@H]1[C@H]3C(=O)O[C@H](c4ccccc4)[C@H](c4ccccc4)N3[C@H](c3ccc(O)cc3)[C@@]13C(=O)Nc1ccccc13)CC2 | inactive | inactive
C[C@@H]1CCCCO[C@@H](CN(C)S(=O)(=O)c2ccccc2)[C@H](C)CN([C@H](C)CO)C(=O)c2cc(NC(=O)c3ccccc3)ccc2O1 | inactive | inactive
C[C@@H]1CN([C@H](C)CO)C(=O)Cc2cc(NC(=O)Nc3cccc4ccccc34)ccc2O[C@H]1CN(C)Cc1ccncc1 | inactive | inactive

SMILES | cytotoxicity call (HSkMC) | growth inhibition call (S. aureus RN4220)
COc1ccc(S(=O)(=O)N(C)C[C@H]2OCCCC[C@H](C)Oc3ccc(NC(=O)NC4CCCCC4)cc3C(=O)N([C@H](C)CO)C[C@@H]2C)cc1 | inactive | inactive
C[C@@H]1CCCCO[C@H](CN(C)Cc2ccncc2)[C@@H](C)CN([C@@H](C)CO)C(=O)c2cc(NC(=O)Nc3ccc4c(c3)OCO4)ccc2O1 | inactive | inactive
C[C@@H]1CN([C@H](C)CO)C(=O)c2cc(NC(=O)Cn3cnnn3)ccc2O[C@H]1CN(C)Cc1ccc(Cl)c(Cl)c1 | inactive | inactive
C[C@H]1CN([C@@H](C)CO)C(=O)c2c(c3ccccc3n2C)-c2ccccc2CO[C@H]1CN(C)C(=O)Nc1cccc(C(F)(F)F)c1 | inactive | inactive
C[C@H](CO)N1C[C@H](C)[C@H](CN(C)C(=O)Nc2ccc(C(F)(F)F)cc2)Oc2ncc(-c3ccc(C#N)cc3)cc2C1=O | inactive | inactive
NCc1ccccc1-c1ccco1 | inactive | inactive
C[C@H](CO)N1C[C@H](C)[C@H](CN(C)S(=O)(=O)c2cn(C)cn2)Oc2ncc(C#CCN(C)C)cc2C1=O | inactive | inactive
COc1ccc(S(=O)(=O)N(C)C[C@H]2OCCCC[C@H](C)Oc3ccc(NS(=O)(=O)c4ccc(Cl)cc4)cc3C(=O)N([C@@H](C)CO)C[C@H]2C)cc1 | inactive | inactive
CC(C)NC(=O)Nc1ccc2c(c1)C(=O)N([C@H](C)CO)C[C@@H](C)[C@H](CN(C)CC1CCCCC1)OCCCC[C@H](C)O2 | inactive | inactive
C[C@@H]1CCCCO[C@@H](CN(C)C(=O)C2CCCCC2)[C@H](C)CN([C@H](C)CO)C(=O)c2cc(NC(=O)c3ccncc3)ccc2O1 | inactive | inactive
C[C@H]1CN([C@@H](C)CO)S(=O)(=O)c2ccc(C#CCN(C)C)cc2O[C@H]1CN(C)S(C)(=O)=O | inactive | inactive
CN1C(=O)c2ccccc2C1=O | inactive | inactive
CCC(=O)N[C@@H]1CC[C@@H](CC(=O)OC)O[C@@H]1CO | inactive | inactive
Cc1noc(C)c1NC(=O)Nc1ccc2c(c1)CC(=O)N([C@H](C)CO)C[C@@H](C)[C@@H](CN(C)Cc1ccc(-c3ccccc3)cc1)O2 | inactive | inactive
C[C@@H]1CCCCO[C@H](CN(C)C(=O)C2CCCCC2)[C@H](C)CN([C@H](C)CO)C(=O)c2cc(NS(=O)(=O)c3cccs3)ccc2O1 | inactive | inactive
C[C@@H]1CN([C@H](C)CO)C(=O)Cc2cc(NS(=O)(=O)c3ccccc3)ccc2O[C@H]1CN(C)Cc1ccc(-c2ccccc2)cc1 | active | inactive
C[C@H](CO)N1C[C@H](C)[C@@H](CN(C)S(=O)(=O)c2cn(C)cn2)Oc2c(NC(=O)c3nc4ccccc4s3)cccc2C1=O | inactive | inactive
Cc1cccc(C)c1NC(=O)C1CCCCN1C.Cl (configuration not stated) | inactive | inactive
C[C@@H]1CCCCO[C@@H](CN(C)C(=O)NC2CCCCC2)[C@H](C)CN([C@@H](C)CO)C(=O)c2cc(NC(=O)Nc3cccc4ccccc34)ccc2O1 | inactive | inactive
CCCCC(CC)COC(=O)C=Cc1ccc(OC)cc1 (configuration not stated) | inactive | inactive
C[C@@H]1CN([C@@H](C)CO)C(=O)Cc2cc(NS(C)(=O)=O)ccc2O[C@H]1CN(C)C(=O)NC1CCCCC1 | inactive | inactive

SMILES | cytotoxicity call (HSkMC) | growth inhibition call (S. aureus RN4220)
O=C(C[C@@H]1C[C@@H]2c3cc(NS(=O)(=O)c4ccc(F)cc4)ccc3O[C@@H]2[C@H](CO)O1)NCc1ccncc1 | inactive | inactive
Cc1noc(C)c1S(=O)(=O)Nc1ccc2c(c1)CC(=O)N([C@@H](C)CO)C[C@H](C)[C@@H](CN(C)Cc1ccc(C(=O)O)cc1)O2 | inactive | inactive
Cc1ccc(=O)n(CC(=O)O)n1 | inactive | inactive
CC(C)NC(=O)Nc1ccc2c(c1)C(=O)N([C@H](C)CO)C[C@@H](C)[C@H](CN(C)C(=O)Nc1cccc3ccccc13)OCCCC[C@H](C)O2 | inactive | inactive
C[C@H]1CN([C@@H](C)CO)C(=O)Cc2cc(NC(=O)Cc3ccccc3)ccc2O[C@@H]1CN(C)Cc1ccc(C(F)(F)F)cc1 | active | inactive
COCCCNC(=O)[C@@]1(Sc2ccc(C)cc2)CC(=O)N(Cc2cc(C(F)(F)F)cc(C(F)(F)F)c2)[C@@H]1c1ccc(CO)cc1I | inactive | inactive
C[C@@H]1CN([C@@H](C)CO)C(=O)Cc2cc(N(C)C)ccc2O[C@H]1CN(C)S(=O)(=O)c1ccc(Cl)cc1 | inactive | inactive
C[C@@H]1CN([C@H](C)CO)C(=O)c2cc(NC(=O)Cn3cnnn3)ccc2O[C@@H]1CN(C)C(=O)Nc1ccc(F)cc1 | inactive | inactive
CCS(=O)(=O)Nc1ccc2c(c1)C(=O)N(C)C[C@@H](OC)[C@H](C)CN(Cc1cccnc1)[C@H](C)CO2 | inactive | inactive
O=C(N[C@H]1CC=CC[C@H](CC(=O)N(CCO)Cc2ccccc2)C(=O)N[C@H](Cc2ccccc2)COC1=O)OCC1c2ccccc2-c2ccccc21 | inactive | inactive
C[C@@H]1CN([C@@H](C)CO)C(=O)c2cccc(NC(=O)c3cnccn3)c2O[C@H]1CN(C)C(=O)Nc1ccc2c(c1)OCO2 | inactive | inactive
CC(=O)Oc1ccccc1C(=O)Nc1ccccc1 | inactive | inactive
c1ccc2c(CSc3nc4ccccc4s3)cccc2c1 | inactive | inactive
O=C(C[C@H]1C=C[C@H](NC(=O)c2cnccn2)[C@H](CO)O1)NCc1ccccc1F | inactive | inactive
C[C@@H]1CN([C@@H](C)CO)C(=O)c2cccc(NC(=O)c3cnccn3)c2O[C@H]1CN(C)Cc1ccccc1 | inactive | inactive
O=C(C[C@@H]1C[C@@H]2c3cc(NS(=O)(=O)c4ccc(F)cc4)ccc3O[C@@H]2[C@H](CO)O1)NCc1ccccc1 | inactive | inactive
C[C@H](CO)N1C[C@H](C)[C@H](CN(C)C(=O)Nc2cccc(Cl)c2Cl)OCc2ccccc2-c2ccccc2C1=O | inactive | inactive
COCCOC(=O)N1C(=O)[C@@]2(c3ccccc31)[C@H](C(=O)N1CCCCCCC1)[C@H]1C(=O)O[C@H](c3ccccc3)[C@H](c3ccccc3)N1[C@@H]2c1ccc(OCCO)cc1 | inactive | inactive
CN1CCN(C(=O)C[C@H]2CC[C@@H]3[C@H](COC[C@H](O)CN3C(=O)C3CCOCC3)O2)CC1 | inactive | inactive
